Tested on: hsp70
Settings: mouse, in vivo, ip
Procedure: FIG. 8A, depicts an image of a western blot showing hsp72 reactivity with Stressgen SPA 812 polyclonal antibody in liver: lane 1, untreated deer mouse; lane 2, mouse treated with phenylephrine IP (25 μg/kg) 6 hours before sacrifice; lane 3, mouse subjected to stress by placement in metabolic cage, removed 6 hours before sacrifice. Similar results were obtained with BAT. FIG. 8B comprises immunohistochemical analyses of hsp70 expression in adrenal glands (top panels) and BAT (bottom panels), comparing an unstressed mouse (left) with a mouse subjected to stress with phenylephrine (25 μg/kg) 6 hours before sacrifice. […] Original magnification was 200× (adrenals) and 400× (BAT).
In the rat and mouse models it is possible to model the signals that activate brown adipose tissue during cold acclimation by administration of adrenergic agents such as phenylephrine. Phenylephrine was injected intraperitoneally at 25 μg/kg and animals were sacrificed by euthanasia at various time points.
HSPs are activated in deer mice by signals that favor activation of brown adipose tissue (BAT). In the rat and mouse models, it is possible to model the signals that activate BAT during cold-acclimation by administration of adrenergic agents such as phenylephrine. […] Of the antigens studied, only hsp70 was induced in the BAT and liver of stressed deer mice, as assessed by IHC staining and/or western blotting.

CNC[C@H](O)c1cccc(O)c1 [phenylephrine]
hsp72 expression in the liver, western blot: had increased

Reference: US20050233963A1 (priority 2000, published 2005)
